Assay results reported in publication PMC10299909, “Structural basis of efficacy-driven ligand selectivity at GPCRs” (Nature Chemical Biology, 2023).
“And” between values parts separate entries of the source, which are not always exact repeats. Equal entries are not always repeated. The source gives many values for each of these; only a part stands here.

Experiments:
M2 WT mAChR = biological target: T1, M2 WT mAChR (Homo sapiens, UniProt P08172); test: BRET TRUPATH GoA activation (G-protein dissociation) assay; format: cell-based; details: T=6min, listed as Ach
T1 construct: expressed in transfected cells; host or cells: CHO FlpIn
T1 sequence (P08172 1-466): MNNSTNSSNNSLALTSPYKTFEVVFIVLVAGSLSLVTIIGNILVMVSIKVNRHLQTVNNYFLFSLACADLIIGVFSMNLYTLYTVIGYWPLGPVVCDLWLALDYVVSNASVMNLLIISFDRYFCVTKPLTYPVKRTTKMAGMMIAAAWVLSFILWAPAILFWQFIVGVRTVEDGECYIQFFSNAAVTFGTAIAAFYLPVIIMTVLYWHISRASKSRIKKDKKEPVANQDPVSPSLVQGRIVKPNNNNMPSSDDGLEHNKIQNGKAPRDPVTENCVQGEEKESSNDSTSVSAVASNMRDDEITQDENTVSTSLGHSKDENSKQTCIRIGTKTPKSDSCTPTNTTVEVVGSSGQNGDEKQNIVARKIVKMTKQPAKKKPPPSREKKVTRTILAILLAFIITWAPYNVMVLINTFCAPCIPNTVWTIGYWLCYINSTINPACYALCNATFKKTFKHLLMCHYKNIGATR
Protocol: (§1) Cells were seeded at 20,000 cells per well into 96-well flat-bottom white culture plates and grown for 4 h. Plasmid DNA (20 ng per well of Gα, Gβ and Gγ at a 1:1:1 ratio) and linear polyethylenimine were added to the cells in a 1:6 ratio. To allow for protein expression, cells were then incubated (37 °C, 5% CO2) for 48 h before the measurement of agonist activity. […] The initial 4 min of measurement was considered baseline counts before ligand or vehicle addition, with BRET readings every 2 min for a further 8 min following drug or vehicle addition.
(§2) Concentration–response curves were fitted to a three-parameter logistic equation to derive ligand potency (pEC50) estimates.
(§3) Data was analyzed using the operational model of agonism to quantify the efficacy (Logτ) of each agonist in each cell line, and subsequently corrected for receptor expression level differences between cell lines (Logτc), using the M2 WT as reference. […] Source data

M4 WT mAChR = biological target: T2, M4 WT mAChR (Homo sapiens, UniProt P08173); test: as above; format: cell-based; details: T=6min, listed as Ach
T2 construct: expressed in transfected cells; host or cells: CHO FlpIn
T2 sequence (P08173 1-479): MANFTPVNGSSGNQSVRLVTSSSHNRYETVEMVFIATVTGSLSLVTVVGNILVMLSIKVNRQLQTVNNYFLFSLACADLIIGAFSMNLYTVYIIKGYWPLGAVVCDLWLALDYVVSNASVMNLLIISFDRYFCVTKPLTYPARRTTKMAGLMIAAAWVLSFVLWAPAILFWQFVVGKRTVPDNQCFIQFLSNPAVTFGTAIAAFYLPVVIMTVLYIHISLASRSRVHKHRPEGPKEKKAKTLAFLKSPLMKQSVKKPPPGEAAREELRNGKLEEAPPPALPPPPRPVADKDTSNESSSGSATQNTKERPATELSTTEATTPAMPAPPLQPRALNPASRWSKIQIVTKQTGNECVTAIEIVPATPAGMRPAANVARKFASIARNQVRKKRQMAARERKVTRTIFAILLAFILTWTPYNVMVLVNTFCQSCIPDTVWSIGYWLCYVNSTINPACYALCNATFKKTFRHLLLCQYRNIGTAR
Protocol: as §1, §2, §3

[1] = Log[Ligand] (M) -5, individual experiments
[2] = Log[Ligand] (M) -6, individual experiments
[3] = Log[Ligand] (M) -7, individual experiments
[4] = Log[Ligand] (M) -8, individual experiments

In the case of `CC(=O)OCC[N+](C)(C)C` [Acetylcholine, acetylcholine], the GoA activation response (M2 WT mAChR; [1]) was 95.9446 % Emax ACh and 100.183 % Emax ACh and 98.1367 % Emax ACh and 97.8085 % Emax ACh and 98.9826 % Emax ACh, the GoA activation response (M2 WT mAChR; [2]) was 93.4511 % Emax ACh and 95.89 % Emax ACh and 95.9729 % Emax ACh and 95.7061 % Emax ACh and 95.6761 % Emax ACh and the GoA activation response (M2 WT mAChR; [3]) was 66.0014 % Emax ACh and 59.0466 % Emax ACh and 58.181 % Emax ACh and 63.3213 % Emax ACh and 68.6187 % Emax ACh. The GoA activation response (M2 WT mAChR; [4]) was 4.731 % Emax ACh and 12.001 % Emax ACh and 11.0991 % Emax ACh and 13.8159 % Emax ACh, the GoA activation response (M4 WT mAChR; [1]) was 98.3771 % Emax ACh and 95.2045 % Emax ACh and 102.476 % Emax ACh and 99.6093 % Emax ACh and 99.0807 % Emax ACh and the GoA activation response (M4 WT mAChR; [2]) was 88.1919 % Emax ACh and 95.0934 % Emax ACh and 93.3247 % Emax ACh and 93.8992 % Emax ACh and 92.3509 % Emax ACh. For the same molecule, the GoA activation response (M4 WT mAChR; [3]) was 50.9085 % Emax ACh and 87.1687 % Emax ACh and 56.2623 % Emax ACh and 65.2872 % Emax ACh and 66.1777 % Emax ACh and the GoA activation response (M4 WT mAChR; [4]) was 20.0071 % Emax ACh and 21.9927 % Emax ACh and 30.4947 % Emax ACh and 17.2765 % Emax ACh and 22.5206 % Emax ACh.
